Several values for one entry are separate records, joined by “and”; a condition that tells them apart may be missing. Identical values can stand only once. The full ranking holds about 5,300 compounds; the median of “PER2::LUC luminescence relative to vehicle control” is about 0.96, and the highest 2% start at about 1.3. This is one part of the list.
Test system: mPer2Luc MEF
Test: PER2::LUC luminescence relative to vehicle control (fold of vehicle); higher = higher PER2::LUC reporter signal
Conditions: 10 µM
In short: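 The reported values are PER2::LUC luminescence as fold of vehicle control in mouse embryonic fibroblasts carrying the mPer2Luc reporter. Cells were seeded at ~3000 per well in 384-well plates in DMEM with 10% FBS at 37 °C and 5% CO2, and compounds were added at 10 μM 48 h later. ONE-Glo luminescence was read 24 h and 30 h after treatment.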

Structure (SMILES)	PER2::LUC luminescence (time after treatment 24 h)	PER2::LUC luminescence (time after treatment 30 h)
COC1=CC(=O)O[C@@H](/C=C/c2ccccc2)C1	1.28	1.35
O=C1NCN(c2ccccc2)C12CCN(CCCOc1ccc(F)cc1)CC2	0.919	0.845
CN1CCc2cc3c(cc2[C@H]1[C@@H]1OC(=O)c2c1ccc1c2OCO1)OCO3	0.971	0.973
OCc1cnc[nH]1	0.91	0.672
Cc1nc(-c2ccc(-c3ccc(C(=O)N4CCc5cc6c(cc54)C4(CCN(C)CC4)CO6)cc3)c(C)c2)no1	0.759	0.749
CC12NC(Cc3ccccc31)c1ccccc12 (single isomer, unassigned; (+))	0.911	0.826
CC(C)c1cccc(C(C)C)c1O	1.05	1
Cc1nccc2c1[nH]c1cc(O)ccc12	0.857	0.907
CCCCCCCCCOc1ccc2[nH]cc(CCN)c2c1	1.05 and 0.639	1.2 and 0.636
N[C@H](CO)Cc1ccccc1	1.04	0.993
C[C@]1(C(=O)O)CCC[C@]2(C)c3cc(O)ccc3CC[C@@H]12	0.96	0.968
CCCN1CCC[C@@H]2Cc3n[nH]cc3C[C@H]21	0.868	0.918
CCCN1CCC[C@@H]2Cc3n[nH]cc3C[C@H]21 (racemic)	0.965	0.942
Cc1[nH]c2ccccc2c1CN(C)C	0.685	0.678
CC(=O)N[C@H]1CN2CC[C@H](O)[C@@H]2[C@@H](O)[C@@H]1O	0.879	0.825
NC(=O)CI	1.59	1.31
C[C@]12CCC(=O)C=C1C=C[C@@H]1[C@@H]2CC[C@@]2(C)[C@H]1CC[C@@]2(O)CCC(=O)O	0.882 and 0.981	1.03 and 0.896
CC(=O)O[C@@H]1[C@H]2CC[C@H]3[C@@](C)(O)[C@@H]4C[C@H](O)C(C)(C)[C@@]4(O)[C@H](O)C[C@@]13C[C@@]2(C)O	0.97	0.959
CC[C@@H](C(=O)[C@@H](C)[C@@H](O)[C@H](C)[C@@H]1O[C@@H]([C@@H](CC)C(=O)O)CC[C@@H]1C)[C@H]1O[C@]2(C=C[C@@H](O)[C@]3(CC[C@@](C)([C@H]4CC[C@](O)(CC)[C@H](C)O4)O3)O2)[C@H](C)C[C@@H]1C	0.228 and 0.178	0.21 and 0.133
COc1ccc2[nH]c3c(c2c1)CCNC3	1.05	1.22
CO[C@H]1[C@H](O)[C@H](O[C@H]2CC[C@@]3(C=O)[C@H](CC[C@@H]4[C@@H]3CC[C@]3(C)[C@@H](C5=CC(=O)OC5)CC[C@]43O)C2)O[C@@H](C)[C@@H]1O	1.03	1.06
Cc1cccc(C)c1NC(=O)CN1CCCC1=O	0.997	0.945
CS(=O)(=O)Nc1ccc(Cc2noc(-c3ccc4[nH]cc(CCN)c4c3)n2)cc1	0.892	0.944
Cc1cccc(Cc2c[nH]cn2)c1C	1.06	1.07
CN1CC[C@]2(CCN3CCc4c(oc5ccccc45)[C@@H]3C2)N(C)C1=O	0.945	0.891
CC(C)[C@H]1C(=O)O[C@@H]2CCN3CC=C(COC(=O)[C@](C)(O)[C@]1(C)O)[C@H]23	1.02	0.979
CC(C)[C@H]1C(=O)N2CCC[C@H]2[C@]2(O)O[C@](NC(=O)[C@@H]3C=C4c5cccc6[nH]cc(c56)C[C@H]4N(C)C3)(C(C)C)C(=O)N12	0.903	0.866
N#CC(C#N)=Cc1ccc(O)c(O)c1	0.965	0.898

Structure (SMILES)	PER2::LUC luminescence (time after treatment 24 h)	PER2::LUC luminescence (time after treatment 30 h)
CCCC[N+]1(C)[C@@H]2C[C@@H](OC(=O)[C@H](CO)c3ccccc3)C[C@H]1[C@@H]1O[C@@H]12 (stereo not given in full)	0.972	0.991
S=C=NCc1ccccc1	1.04	0.984
C[C@H]1CC[C@]2(NC1)O[C@H]1C[C@H]3[C@@H]4CC[C@H]5C[C@@H](O)CC[C@]5(C)[C@H]4CC[C@]3(C)[C@H]1[C@@H]2C	1.02	0.919
CC(C)C(Br)C(=O)NC(N)=O (stereo not given)	0.738	0.936
COP(=O)(OC)OC=C(Cl)Cl	0.909	0.868
NC(CCCCCP(=O)(O)O)C(=O)O (racemic)	1.22	1.09
COP(=O)(OC)C(O)C(Cl)(Cl)Cl (stereo not given)	1.03 and 0.856	0.878 and 0.86
CNC1CC(N)C(O)C(OC2OC(CO)C(O)C3OC4(OC(C(N)CO)C(O)C(O)C4O)OC23)C1O (stereo not given)	0.804	0.862
C=CCc1ccc2c(c1)OCO2	0.957	1.03
c1ccc(Cn2ccnc2)cc1	1.03	1.25
N=C(N)NCCCCCCCCCCNC(=N)N	0.972	0.965
C=CCN1CC[C@]23c4c5ccc(O)c4O[C@H]2C(=O)CC[C@@]3(O)[C@H]1C5	0.937 and 0.849	1.01 and 0.88
CCCOC(=O)c1cc2c(cn1)[nH]c1ccccc12	1.03	0.941
Cc1ccc2cc3c(ccc4ccccc43)c3c2c1CC3	1.18	1.11
C[C@@H]1C(=O)O[C@H]2[C@H]1CC[C@@]1(C)C=CC(=O)[C@@]3(C)O[C@@]213	0.923	0.994
O=c1n(Cl)c(=O)n(Cl)c(=O)n1Cl	1.05 and 1.07	0.958 and 1.09
C[C@@H]1O[C@H](C[N+](C)(C)C)C[C@H]1O	0.96	1.01
C[C@@H]1O[C@H](C[N+](C)(C)C)C[C@H]1O (racemic)	0.84	0.916
CP(=O)(O)C1=CCNCC1	0.941	0.959
Cn1cc(C(=O)C(=O)NC2CN3CCC2CC3)c2ccccc21 (stereo not given)	0.832	0.8
Cn1cc(C2=C(c3cn(C4CCN(Cc5ccccn5)CC4)c4ccccc34)C(=O)NC2=O)c2ccccc21	1.15	1.1
NC(=O)c1cc(N2CC2)c([N+](=O)[O-])cc1[N+](=O)[O-]	0.962	1.23
CN1Cc2c(ccc3c2OCO3)[C@@H]2[C@H]1c1cc3c(cc1C[C@@H]2O)OCO3	0.446	0.425
CCCCCCCCCCCCCC(=O)O[C@@H]1[C@@H](C)[C@@]2(O)[C@@H](C=C(CO)C[C@@]3(O)C(=O)C(C)=C[C@@H]23)[C@@H]2C(C)(C)[C@]12OC(C)=O	1.12	1.08
CC1(C)C(C(=O)Nc2ccc(S(=O)(=O)c3ccc(NC(=O)C4C(C)(C)C4(C)C)cc3)cc2)C1(C)C	0.852	1.02
COc1c2c(cc3c1OCO3)CCN(C)C2	1.07	1.05
O=C(NCC1CCOCC1)c1cnc(Nc2ccc(Cl)cc2Cl)nc1C(F)(F)F	1.03	1.03

Reference: the supplement of paper PMC9334596
